Results: the supplement of paper PMC12217912
The other results are listed elsewhere or left out. Sequences were assembled here from the parent chain. Values near 0.05 are background.

B1: TEV protease; numbered along this chain (parent)
chain: MGESLFKGPRDYNPISSSICHLTNESDGHTTSLYGIGFGPFIITNKHLFRRNNGTLVVQSLHGVFKVKDTTTLQQHLVDGRDMIIIRMPKDFPPFPQKLKFREPQREERICLVTTNFQTKSMSSMVSDTSCTFPSGDGIFWKHWIQTKDGQCGSPLVSTRDGFIVGIHSASNFTNTNNYFTSVPKNFMELLTNQEAQQWVSGWRLNADSVLWGGHKVFMVKPEEPFQPVKEATQL

Variants of: B1
Assay: raw area under fraction-flipped curve 0-4 h after induction (AUC4h, not background-subtracted), DNA-recorder readout of cleavage of the substrate (dimensionless); higher = more cleavage of the substrate by the protease variant
Conditions: temperature: 34 °C; time window: 0-4 h after rhamnose induction
Description: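 In vivo DNA recorder in E. coli TOP10(DE3) ΔrhaA at 34 °C. Each TEVp single-site mutant (parent TEVp 0) is paired with a single-site variant of the 7-mer TEVs (canonical ENLYFQ|S). The substrate sits between flexible linkers in a Bxb1-sfGFP-TEVs-SsrA fusion, so cleavage stabilises Bxb1 and speeds flipping of a recombination array, read by NGS. The value is the raw area under the fraction-flipped curve over 0-4 h after rhamnose induction (AUC4h), with ≥20 reads per time point. It is not background-subtracted; inactive controls average about 0.047.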
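Also: Bxb1 expression induced with 0.2% (w/v) L-rhamnose at OD600 near 0.5, cultures sampled hourly, flipped fraction per protease–substrate barcode pair counted by paired-end Illumina sequencing.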

Row | Variant | area with substrate ENAYFQS | area with substrate ENCYFQS | area with substrate ENDYFQS | area with substrate ENEYFQS | area with substrate ENFYFQS | area with substrate ENGYFQS | area with substrate ENIYFQS | area with substrate ENNYFQS | area with substrate ENPYFQS | area with substrate ENQYFQS | area with substrate ENRYFQS | area with substrate ENSYFQS | area with substrate ENVYFQS | area with substrate ENYYFQS | area with substrate ENHYFQS | area with substrate ENTYFQS | area with substrate ENMYFQS | area with substrate ENKYFQS | area with substrate ENWYFQS
1 | Q118G | 0.0653 | 0.0654 | 0.0703 | 0.0592 | 0.112 | 0.0585 | 0.132 | 0.0675 | 0.061 | 0.0598 | 0.0639 | 0.0599 | 0.102 | 0.1 |  |  |  |  | 
2 | Q118F | 0.0384 | 0.0717 | 0.0676 | 0.0684 | 0.0701 |  | 0.102 | 0.0562 | 0.0642 |  | 0.0575 | 0.0586 | 0.0813 | 0.0369 | 0.0503 | 0.07 |  |  | 
3 | Q118N | 0.0618 |  |  | 0.0414 | 0.0567 |  |  | 0.0691 |  | 0.0572 |  | 0.0683 |  |  |  | 0.0576 | 0.0717 |  | 
4 | M122Y | 0.0742 | 0.0708 | 0.063 | 0.0524 | 0.0093 | 0.033 |  | 0.0596 | 0.0654 | 0.0621 | 0.0539 | 0.0471 | 0.0867 | 0.0434 | 0.057 | 0.0685 | 0.0702 | 0.0686 | 
5 | M122P | 0.0621 |  | 0.0544 | 0.0627 | 0.0721 |  | 0.0636 | 0.0367 | 0.0567 | 0.0379 | 0.0544 | 0.0624 | 0.0821 | 0.0391 |  |  |  |  | 
6 | P155M | 0.0683 |  |  | 0.041 | 0.0467 |  | 0.0738 |  | 0.0267 | 0.0671 |  | 0.0599 | 0.05 | 0.0441 | 0.0575 | 0.057 | 0.0684 |  | 0.0416
7 | P155E | 0.0436 |  | 0.0655 | 0.0343 |  | 0.0481 | 0.0633 |  | 0.0485 | 0.0485 |  | 0.0441 |  | 0.0477 | 0.0582 | 0.0492 |  |  | 0.0457
8 | G150F | 0.0632 | 0.0599 | 0.0565 |  | 0.0597 | 0.071 | 0.0609 |  | 0.0649 | 0.0585 |  | 0.0528 | 0.0603 | 0.0655 | 0.0574 | 0.0665 | 0.0562 | 0.0702 | 
9 | G150L | 0.0606 | 0.0575 | 0.053 |  |  | 0.0627 |  | 0.0593 |  | 0.0666 | 0.0392 | 0.0557 | 0.0628 | 0.0523 | 0.0625 | 0.0535 | 0.0556 | 0.0591 | 0.0728
10 | V157N | 0.0567 |  | 0.0611 | 0.0478 | 0.0554 | 0.0552 |  | 0.0508 |  | 0.0516 | 0.0449 | 0.054 | 0.0486 | 0.044 | 0.0525 | 0.0415 |  |  | 0.0501
11 | V157R | 0.0554 | 0.0589 | 0.0616 | 0.0545 | 0.0569 | 0.0459 | 0.0656 |  |  | 0.0628 |  | 0.0579 | 0.0583 | 0.0605 | 0.0545 | 0.0734 |  | 0.0351 | 0
12 | F140M | 0.0653 | 0.0487 | 0.0755 | 0.0607 |  |  | 0.0708 |  |  | 0.062 | 0.0492 |  |  |  | 0.0531 |  |  | 0.0492 | 
13 | F140I | 0.0617 | 0.0636 | 0.0585 | 0.0601 | 0.0686 | 0.074 | 0.0444 | 0.0645 | 0.0587 | 0.0587 | 0.0616 | 0.059 | 0.0606 | 0.0544 | 0.05 | 0.0566 |  | 0.0683 | 0.0458
14 | F140P | 0.0614 | 0.0643 | 0.0579 | 0.0746 |  | 0.0501 |  | 0.0634 | 0.0631 |  | 0.0567 | 0.0624 | 0.059 | 0.0558 | 0.0421 | 0.0253 |  |  | 
15 | T114M | 0.0501 |  | 0.0398 | 0.069 | 0.0544 | 0.0599 |  | 0.0527 | 0.068 |  |  | 0.0888 | 0.0793 | 0.0624 | 0.0597 | 0.0778 |  |  | 0.0612
16 | T129P | 0.0756 | 0.0664 | 0.06 | 0.0479 | 0.0406 |  | 0.0764 | 0.0741 | 0.0693 | 0.061 | 0.0559 | 0.0667 | 0.0701 | 0.0599 | 0.0691 | 0.063 | 0.0696 |  | 0.0566
17 | V113H | 0.0673 |  | 0.0689 | 0.0656 | 0.0386 |  |  |  | 0.0567 | 0.0639 | 0.0285 | 0.0458 |  | 0.0516 | 0.064 |  | 0.0807 | 0.0407 | 0.066
18 | V113L | 0.0708 | 0.0666 | 0.0623 | 0.0549 | 0.0641 | 0.0631 | 0.089 | 0.0699 | 0.0476 | 0.0831 | 0.0685 | 0.0854 |  |  | 0.0598 | 0.0709 | 0.0829 | 0.0643 | 
19 | V113D | 0.0563 | 0.0405 | 0.0462 | 0.0516 | 0.0475 | 0.0424 | 0.0562 | 0.0485 |  | 0.0557 | 0.061 | 0.0557 | 0.0396 |  | 0.0455 | 0.0641 | 0.0446 | 0.0458 | 0.006
20 | S123T | 0.0728 |  | 0.0655 | 0.0616 |  |  | 0.107 | 0.0558 | 0.0468 | 0.0652 | 0.0522 | 0.0547 | 0.0809 |  | 0.0484 | 0.0473 |  |  | 
21 | T132S | 0.0659 |  | 0.0663 | 0.0557 | 0.0669 |  |  |  |  |  | 0.0527 |  |  |  |  | 0.0628 |  |  | 
22 | T132G | 0.0642 | 0.0678 | 0.0684 | 0.063 | 0.0731 | 0.0641 | 0.115 |  | 0.0582 | 0.082 | 0.0571 |  | 0.0643 |  | 0.0543 | 0.0685 | 0.0788 | 0.0538 | 0.0049
23 | D128H | 0.0658 | 0.0719 | 0.0331 |  | 0.0775 | 0.0769 | 0.114 | 0.0621 | 0.0524 | 0.0597 | 0.078 | 0.0491 | 0.0801 | 0.0556 | 0.0423 | 0.0633 | 0.0906 | 0.0658 | 
24 | T147Y | 0.0549 | 0.043 | 0.0693 |  | 0.0351 | 0.065 |  |  |  | 0.0613 |  |  | 0.0556 | 0.0512 |  | 0.0635 |  | 0.0711 | 
25 | G153Y | 0.036 |  | 0.0566 | 0.0433 |  | 0.0368 | 0.0435 |  |  | 0.0521 | 0.0528 |  | 0.0431 |  |  | 0.0462 | 0.052 |  | 
26 | G153N | 0.0876 | 0.0491 | 0.0608 |  | 0.0456 | 0.048 |  |  | 0.0404 | 0.0568 | 0.0536 | 0.0437 |  |  |  |  |  | 0.0469 | 
